Among all 420,000 compounds or so, about 64,000 (15%) were called active. The inconclusive results got no clear call from the source; some entries with a clear call stand among them for comparison. The call rests on the fitted dose curve; in most records, active means well fitted inhibition curve with a large enough effect; inconclusive means small, poorly fitted or top-dose-only effect; inactive means flat fitted curve, though single readings scatter. A potency beside an inconclusive call is a rough fit, not a confirmed value.
Assay: qHTS for Inhibitors of human tyrosyl-DNA phosphodiesterase 1 (TDP1): qHTS in cells in absence of CPT; further: nearly all actives have a fitted effect of over 55% in size
Settings: DT40 Tdp1-/- hTDP1 cells, no CPT, ATP luminescence, 48 h; activity change, negative = growth inhibition: at 46.2 µM (top of the series) unless noted
In short: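 Stably hTDP1-transfected Tdp1-null chicken DT40 cells were treated with library compounds minus camptothecin and grown for at least 48 hr at 37 °C, after which cellular ATP was quantified by luminescence.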
On the % scale 0 is the no-effect control and ±100 the full control effect; potency means the concentration at half of the fitted maximal effect; tags describe the fitted curve by direction and shape.

Structure (SMILES) | Potency | activity change, negative = growth inhibition
COC(=O)C(O)(c1ccc(N(C)C(=O)c2cccs2)cc1)C(F)(F)F (stereo unspecified) | inconclusive: 25.9 µM [inhibitor, single point] | 
Cc1cc(C)n2c(Nc3ccc4c(c3)OCCO4)c(-c3cc4ccccc4o3)nc2n1 | active: 20.6 µM | 
COc1ccc(CCNCc2ccc3c(c2)n(C)c(=O)n3C)cc1 | inactive | 
CCOc1ccc(NC(=S)NC2CC3CCC(C2)N3Cc2ccco2)cc1 (stereo unspecified) | inconclusive: 29.1 µM [inhibitor, single point] | 
CN1CCN(C(=S)SCC(=O)Nc2ccc(Cl)cc2C(=O)c2ccccc2)CC1 | inconclusive: 20.6 µM [inhibitor, single point] | 
C#C[C@]1(O)CC[C@H]2[C@@H]3CCC4=CC(=O)CC[C@@H]4[C@H]3C(=C)C[C@@]21CC | inconclusive: 16.8 µM [inhibitor, partial curve, poor fit] | 
CC(C)CCN(N=O)[C@@H](Cc1ccccc1)CN(N=O)[C@@H](Cc1ccccc1)CN(C)N=O | inconclusive: 16.4 µM [inhibitor, single point] | 
O=C(Nc1ccc(Br)cc1C(=O)c1ccccc1Cl)c1ccccc1F | inactive | 
COc1ccccc1CNCC(=O)Nc1cc(S(=O)(=O)N2CCCCC2)ccc1C | inconclusive: 29.1 µM [inhibitor, single point] | 
Cc1ccccc1-c1ccc2n1Cc1cnnn1-c1ccccc1-2 | inconclusive: 29.1 µM [inhibitor, single point] | 
CC[C@H](O)C(C[C@H](C)N(C)C)(c1ccccc1)c1ccccc1 | inconclusive: 49.5 µM [inhibitor, single point] | 
C/C(=N\NP(=S)(c1ccccc1)c1ccccc1)c1ccc(O)cc1O | inactive | 
CCN1C[C@]2(COC)C(O)C[C@H](OC)[C@@]34C5C[C@]6(O)C(OC)C(O)[C@](OC(C)=O)(C5C6OC(=O)c5ccccc5)C(C(OC)C23)C14 (stereo partly specified) | inactive | 
C/C1=C\[C@@H](C)C/C=C/[C@H]2[C@@H]3O[C@]3(C)[C@@H](C)[C@H]3[C@H](Cc4c[nH]c5ccccc45)NC(=O)[C@]32C(=O)/C=C/C(=O)[C@@H]1O | active: 0.146 µM | 
O=C(COc1ccc2ccccc2c1)N1CCN(Cc2c[nH]c3ccccc23)CC1 | active: 5.17 µM | 
C=C[C@@]12CN(C)[C@H]3[C@H]1[C@@]1(C(=O)Nc4ccccc41)C1CC2[C@@H]3CO1 | inactive | 
COc1ccc(N2C(=O)NC(=O)/C(=C\c3cn(C)c4ccccc34)C2=O)cc1 | inactive | 
COc1ccc(C2=C(C(C)=O)Sc3nnc(-c4ccc(C)cc4)n3N2C(C)=O)cc1OC | active: 4.61 µM | 
CCC(C)n1c(O)c(/C=N/Nc2nc3c(c(=O)n(C)c(=O)n3C)n2C)c(=O)[nH]c1=S (stereo unspecified) | inconclusive: 20.6 µM [inhibitor, partial curve] | 
COC(=O)C1=C(c2ccc(F)cc2OCc2ccccc2)C[C@@H]2CC[C@H]1N2C(=O)NCc1ccccc1C(F)(F)F | inconclusive: 29.1 µM [inhibitor, single point] | 
C/C(N)=C(/C#N)C(=O)CSc1nc2cc(Cl)ccc2c(=O)n1-c1ccc(C)cc1 | inconclusive: 25.9 µM [inhibitor, single point] | 

Structure (SMILES) | Potency | activity change, negative = growth inhibition
COc1cc(O)cc2c1C(=O)O[C@@H](C)CCCC(=O)CCCCC2 | inconclusive: 29.1 µM [inhibitor, single point] | 
CCCNC(=O)N1[C@H]2CC[C@@H]1C(C(=O)OC)=C(c1cccc(Cl)c1)C2 | inconclusive: 29.1 µM [inhibitor, single point] | 
CSCCC(c1nnnn1-c1ccc2c(c1)OCCO2)N1CCC(n2c(=O)[nH]c3ccccc32)CC1 (stereo unspecified) | active: 7.31 µM | 
Cc1cccn2c(=O)c3c(nc12)N1CCCCC1C1(C3)C(=O)N(C)C(=O)N(C)C1=O (stereo unspecified) | inconclusive: 16.4 µM [inhibitor, single point] | 
O=c1[nH]c(=S)n(Cc2ccc(F)cc2)c(O)c1/C=N/N1CCCCC1 |  | inconclusive: -34.5% [inhibitor]
CN(C)C1(CNC(=O)c2ccc(NS(=O)(=O)c3ccc(Cl)c(Cl)c3)cc2)CCCCC1 | inconclusive: 29.1 µM [inhibitor, single point] | 
Cc1ccccc1CCNCc1ccc(Br)cc1 | inconclusive: 25.9 µM [inhibitor, single point] | 
COC(=O)C1=C(c2ccccc2OCc2ccccc2)C[C@@H]2CC[C@H]1N2C(=O)NCc1ccc(OC)cc1 | inconclusive: 29.1 µM [inhibitor, single point] | 
COc1cc(CC(C)N)cc2c1OCO2 (stereo unspecified) |  | inconclusive: -33.9% [inhibitor] [at 92.5 µM]
COC(=O)C1=C(c2ccccc2)C[C@@H]2CC[C@H]1N2C | inactive | 
Cc1nn(Cc2c(Cl)cccc2Cl)c(Cl)c1C(=O)O | inactive | 
CO/N=C(/C(=O)N[C@@H]1C(=O)N2C(C(=O)O)=C(Cn3nnc(C)n3)CS[C@H]12)c1csc(N)n1 | inconclusive: 33.5 µM [inhibitor, partial curve, poor fit] | 
CN1CC(C(=O)c2cccc(C(F)(F)F)c2)C(c2ccc(Cl)cc2)C1 (stereo unspecified) | inconclusive: 16.4 µM [inhibitor, partial curve] | 
CN(C)C(=O)Oc1ccc2nnc3ccnn3c2c1 |  | inconclusive: -32.3% [inhibitor]
CCN[C@@H](C)Cc1ccccc1 | inactive | 
Cc1ccc2c(c1)cc1c(=O)n(CC(=O)N3CCC4(CC3)OCCO4)nc(C)n12 | inconclusive: 23.1 µM [inhibitor, single point] | 
CC[C@]12C=CCN3CCC4(c5cc(Br)c(OC)cc5N(C)C4[C@@](O)(C(=O)OC)[C@@H]1OC(C)=O)C32 (stereo partly specified) | inconclusive: 25.9 µM [inhibitor, single point] | 
Cc1cc(-c2nnn(CCCOC(C)(C)C)c2C)ccc1-c1cn(CCCOC(C)(C)C)nn1 | active: 6.51 µM | 
O=C1NCN(c2ccccc2)C12CCN(C(c1ccccc1OC(F)(F)F)c1nnnn1C1CCCCC1)CC2 (stereo unspecified) | inconclusive: 29.1 µM [inhibitor, single point] | 
CCCCCCN1CCN(c2ccccc2Cl)CC1 | inconclusive: 20.6 µM [inhibitor, partial curve] | 

Reference: PubChem BioAssay AID686978 (National Center for Advancing Translational Sciences (NCATS), 2013)
